Screen size: about 340,000 compounds; about 6,900 (2%) were called active. Cut-off read from the data, not from the text of the source: active = inhibition above about 30%; inactive = below that, where a call was filed. This is a selection; strong and weak results do not stand in their true shares. The source gives no active or inactive call for entries shown without one.
Biological target: D(2) dopamine receptor (Homo sapiens) (UniProt P14416)
Experiment: HTS Assay for Allosteric Antagonists of the Human D2 Dopamine Receptor: Primary Screen for Antagonists; note: 0% is about no effect
Conditions: HEK293 TREx D2 cells, calcium flux, dopamine EC80; at 10 µM; stronger effect = higher value
Text: NIH Chemical Genomics Center [NCGC] NIH Molecular Libraries Probe Centers Network [MLPCN] MLPCN Grant: NS064831-01 Assay Submitter (PI): David Sibley Dopamine receptors (DARs) are involved in the etiology and/or therapy of a number of neuropsychiatric and endocrine disorders. For instance, all receptor-based antiparkinsonian drugs work via stimulating the D2 DAR subtype whereas all FDA-approved antipsychotic agents are antagonists of this receptor. […] There are three different types of allosteric modulators that we are seeking, two of which will stimulate or augment receptor signaling, allosteric agonists and potentiators, while the third, allosteric antagonists, will attenuate receptor signaling. The present primary screening assay measures compound antagonism after an EC80 addition of dopamine by tracking calcium flux in a […], inducible Hek293 Trex D2 cell line.
Freshly passaged cells are plated in 1536 well black, clear bottom plates at a density of 4000 cells/well in 3 ul of complete media containing 1x tetracycline inducer. After an overnight incubation at 30 C in 5% CO2, cells are loaded with 2 ul of the no wash Calcium Assay Kit (ABD Bioquest) and incubated at room temperature for 30 to 90 minutes. Agonist read: A 10 cycle (1 second/cycle) baseline measurement is taken and then the FDSS online 1536 pintool delivers 23 nl of compound library (as well as dopamine controls) to the plate. The plate is measured for kinetically at 1 cycle/sec for 180 seconds. Following the 180 second read, 1 ul of an EC80 (negative modulation assay) is delivered by an onboard pipette head. Measurements are taken kinetically for an additional 180 seconds.

Sequence of UniProt P14416 (P14416 whole entry, looked up): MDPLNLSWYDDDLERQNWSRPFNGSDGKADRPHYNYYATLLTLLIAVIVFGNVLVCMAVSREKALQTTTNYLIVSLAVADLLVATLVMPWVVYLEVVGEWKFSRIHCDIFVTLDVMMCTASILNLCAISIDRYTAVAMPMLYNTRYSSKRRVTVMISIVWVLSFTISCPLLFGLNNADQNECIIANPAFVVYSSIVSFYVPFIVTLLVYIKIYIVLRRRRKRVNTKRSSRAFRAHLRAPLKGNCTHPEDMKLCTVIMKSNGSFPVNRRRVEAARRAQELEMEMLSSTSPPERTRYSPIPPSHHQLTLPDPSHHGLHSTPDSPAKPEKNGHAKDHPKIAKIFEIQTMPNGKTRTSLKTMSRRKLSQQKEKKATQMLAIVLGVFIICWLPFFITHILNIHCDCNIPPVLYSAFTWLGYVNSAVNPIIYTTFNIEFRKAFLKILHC

| Structure (SMILES) | inhibition |
| --- | --- |
| CCOc1cc(S(=O)(=O)NCCc2c(C)[nH]c3ccc(C)cc23)ccc1F | -19.5% |
| COc1ccc(C)cc1NC(=O)c1sc2nc(-c3ccc(F)cc3)cn2c1C | 8.38% |
| Cc1ccc(Cn2c(C)c3cnn(CC(=O)O)c(=O)c3c2C)cc1 | -1.51% |
| O=C(Cn1cc(SCc2ccc(F)cc2)c2ccccc21)N1CCCCC1 | 9.92% |
| CCCSc1oc(-c2cccs2)nc1S(=O)(=O)c1ccc(C)cc1 | 6.5% |
| COc1ccc(NC(=O)Cn2c(=O)n(CCCCCC(=O)NCc3ccc4c(c3)OCO4)c(=O)c3sccc32)cc1Cl | 1.68% |
| O=C(Nc1cccc(C(=O)OCc2cc(=O)n3c4c(sc3n2)CCCC4)c1)c1ccc(Cl)cc1 | 9.13% |
| CC1(C)Cc2c(sc3nc(SCC(=O)NCc4ccco4)n(-c4ccccc4)c(=O)c23)CS1 | active: 30.4% |
| CCc1nnc(SCc2cccc(Cl)c2)c2cc3sccc3n12 | -5.07% |
| CCOc1cccc(C(=O)Nc2ccc3oc(-c4ccncc4)nc3c2)c1 | 0.369% |
| Cc1cc(C)c(NC(=O)CSc2nc3nccnc3c(=O)n2CCc2c[nH]c3ccccc23)c(C)c1 | -6.34% |
| COc1cc(OC)c(NS(=O)(=O)c2c(C)nc3sc(C)cn3c2=O)cc1Cl | 3.92% |
| COc1ccc(-c2cc(OC(=O)c3ccccc3Cl)c3c(C)oc(C)c3c(=O)c2)cc1OC | 9.43% |
| COc1ccc(CNC(=O)CN2C(=O)COc3ccc(S(=O)(=O)N4CCCCC4)cc32)cc1 | 2.1% |
| Cc1ccc(-c2noc(-c3cccnc3NCc3ccco3)n2)cc1 | 7.41% |
| COc1ccc2c(CNC3CCCCCC3)c(C(=O)O)n(Cc3ccc(C)cc3)c2c1 | -13% |
| Cc1cc(F)ccc1NC(=O)Cn1nc(N2CCN(c3ccccc3)CC2)ccc1=O | 2.06% |
| COc1ccc(CCNC(=O)C(=O)NCC(c2cccs2)S(=O)(=O)c2cccs2)cc1 (stereo unspecified) | -26.4% |
| COc1ccc(C(=O)n2nc(-c3cccnc3)nc2NCc2ccccc2)cc1OC | 9.91% |
| CCOc1ccccc1Nc1nc2ccccc2nc1NS(=O)(=O)c1ccc(Cl)cc1 | 2.39% |
| CCOC(=O)c1oc2cccc(OC(C)=O)c2c1C | active: 36.7% |
| COc1ccccc1CNc1ncnc2onc(-c3ccc(F)cc3)c12 | -1.62% |
| CC(=O)N1CCCc2cc(S(=O)(=O)N3CCC(C(=O)Nc4c(C)cccc4C)CC3)ccc21 | -9.43% |
| COc1cccc(-c2cc(=O)c3cc(NC(C)=O)ccc3[nH]2)c1 | active: 33.8% |

| Structure (SMILES) | inhibition |
| --- | --- |
| COc1ccc(-c2nc(CN3CCC(C(=O)NCc4ccc(C)cc4)CC3)c(C)o2)cc1OC | -21.9% |
| CCOc1ccc(CNC(=O)CCCn2c(=O)c3cccn3c3ccccc32)cc1 | -7.9% |
| CCOc1ccc(NC(=O)c2cn(C3CCCCC3)c(=O)c3c2c2ccccc2n3C)cc1 | -0.156% |
| Cc1cccc(C(=O)Nc2ccccc2OCc2cc(=O)n3ccccc3n2)c1 | 5.34% |
| COc1ccc(CCC(C)N2CCC(Oc3ccc(C(=O)N4CCCC4)cc3)CC2)cc1 (stereo unspecified) | active: 30.4% |
| Cc1ccc(-c2nnc(SCC(=O)NC(C)(C)C)nc2-c2ccc(C)cc2)cc1 | 18.5% |
| Cn1c(=O)c2c(nc(NCCc3ccccc3)n2Cc2ccccc2Br)n(C)c1=O | -10.9% |
| Cc1onc(-c2ccccc2)c1C(=O)OCCOc1ccccc1F | active: 37.6% |
| COc1cccc2c1cc1c(=O)n(CC(=O)N3CCN(c4ccc(F)cc4)CC3)nc(C)n12 | 7.45% |
| CS(=O)(=O)N1CCN(c2ccccc2NC(=O)c2cccnc2Cl)CC1 | active: 32.8% |
| COc1ccc2nc(SCC(O)c3cccc(Br)c3)[nH]c2c1 (stereo unspecified) | 7.19% |
| CCCS(=O)(=O)c1nc(S(=O)(=O)c2ccc(C)cc2)c(NCCCOC(C)C)s1 | 6.38% |
| Cc1ccc(Sc2ccc(N3CCCC(C(=O)Nc4ccc(F)cc4)C3)nn2)cc1 (stereo unspecified) | 8.05% |
| Cc1nn(-c2ccc(N3CCCCC3)nn2)c(C)c1CCC(=O)NCc1ccccc1 | 4.1% |
| CCN(CC)C(=O)CSc1nc2cc3c(cc2c(=O)n1CCCC(=O)NCc1ccc2c(c1)OCO2)OCO3 | 15.3% |
| COc1ccc(-c2cn3c(n2)sc2cc(C(=O)NCCCc4ccccc4)ccc23)cc1 | 20.4% |
| O=C(Cn1nc(N2CCN(c3ccccc3)CC2)ccc1=O)NCc1ccccc1F | -3.25% |
| CCc1nc2ccccc2n1CCCCOc1cccc(C)c1 | -4.87% |
| CCCOc1ccc(NC(=O)CC2C(=O)N(c3ccc(OC)cc3)C(=O)N2CCc2ccncc2)cc1 (stereo unspecified) | -1.63% |
| CCOC(=O)c1cc(-c2ccccc2)n(CCCC(=O)Nc2cccc(C)c2)c1C | -9.16% |
| CC(C)(C)c1ccc(S(=O)(=O)c2cnc(SCC(=O)Nc3ccc4c(c3)OCCO4)[nH]c2=O)cc1 | 7.54% |
| CC(C)CC(=O)NCC(c1ccc2c(c1)OCO2)N1CCN(c2ccc(F)cc2)CC1 (stereo unspecified) | -0.969% |
| CCOC(=O)c1ccc(Oc2nc(C)nc3c2oc2ccccc23)cc1 | 3.71% |
| COC(=O)c1cc(NC(=O)CN(c2ccccc2OC)S(=O)(=O)c2ccccc2)ccc1Cl | active: 35.6% |

| Structure (SMILES) | inhibition |
| --- | --- |
| O=C(/C=C/c1ccccc1)Nc1nc2n(n1)C(c1ccc(Cl)cc1)C=C(c1ccccc1)N2 (stereo unspecified) | 15.6% |
| Cc1nnsc1C(=O)Oc1ccc(C#N)cc1 | 6.32% |
| O=C(CN1C(=O)C2(SCC(=O)N2c2cccc(F)c2)c2ccccc21)NCc1ccccc1Cl (stereo unspecified) | -9.4% |
| COc1ccccc1N1CCN(CCCNC(=O)C2CCCN(c3ncnc4c3nc3n4CCCCC3)C2)CC1 (stereo unspecified) | active: 76.1% |
| Clc1ccc(CN2CCc3nc(N4CCN(c5ccccn5)CC4)ncc3C2)cc1 | 14.5% |
| Oc1ccc(-c2ccccc2)cc1CN1CCCCCC1 | active: 69% |
| Cc1ccc(CN2c3ccccc3-c3nc(SCC(=O)NCCc4ccccc4)ncc3S2(=O)=O)cc1 | 3.75% |
| Cn1nccc1C(=O)N1CCc2ccccc21 | active: 35.8% |
| O=C(Nc1ccc(C(F)(F)F)cc1)c1cc(S(=O)(=O)N2CCCc3ccccc32)ccc1F | 16.6% |
| CCn1ccc2cc(S(=O)(=O)N3CCC(C(=O)NCC(C)c4ccccc4)CC3)ccc21 (stereo unspecified) | -7.38% |
| COc1ccc(S(=O)(=O)Nc2cc(-c3cn4ccc(C)cc4n3)ccc2C)cc1OC | -6.54% |
| Cc1nnc2c3ccccc3nc(Nc3ccccc3C(=O)O)n12 | -9.14% |
| Cc1ccc(NCc2cc3cc4c(cc3n(CC(=O)Nc3ccc(F)cc3F)c2=O)OCCO4)cc1 | -12.9% |
| CCOc1ccc(S(=O)(=O)NCc2ccc3c(c2)CCN3C(=O)c2ccc(C)cc2)cc1 | 2.83% |
| O=C(COc1ccc(Cl)cc1)Nc1ccc2nc(SCC(=O)N3CCOCC3)sc2c1 | -13.8% |
| COc1cccc(CNC(=O)C2CCN(Cc3cc4ccccc4n3Cc3ccccc3)CC2)c1OC | -4.89% |
| Cc1ccc(Cl)cc1NC(=O)c1nnn(Cc2ccccc2)c1N | -22.9% |
| Cc1ccc(NC(=O)CSc2nc3ccccc3nc2Cc2ccccc2)c(Cl)c1 | -7.83% |
| Cc1ccc(C)c(NC(=O)c2cc(S(=O)(=O)N3CCN(c4cccc(Cl)c4)CC3)ccc2F)c1 | 13.1% |
| CCN(Cc1ccccc1)C(=O)C1CCC(CNS(=O)(=O)c2ccc3c(c2)CCCC(=O)N3)CC1 (stereo unspecified) | -0.601% |
| CCc1ccc(Nc2nc3c(S(=O)(=O)c4ccc(C)cc4)nnn3c3ccsc23)cc1 | 10.9% |
| Cc1ccc(S(=O)(=O)c2nnn3c2nc(N2CCCC(C)C2)c2cc(Cl)ccc23)cc1C (stereo unspecified) | 9.52% |
| O=C(Nc1ccccc1C(F)(F)F)c1noc2c1CCCC2 | -1.77% |
| Cc1ccc(NC(=O)Cn2c(=O)n(-c3ccccc3)c(=O)c3ccc(C(=O)NCc4ccc5c(c4)OCO5)cc32)cc1 | -14% |

| Structure (SMILES) | inhibition |
| --- | --- |
| CCN1CCC(N(Cc2ccc3c(c2)OCO3)C(=O)Nc2cccc(C)c2C)CC1 | -4.93% |
| Cc1ccc2nc(-c3cccc(NC(=O)CSc4ccc(Cl)cc4)c3)oc2c1 | -1.28% |
| CC(=O)N1CCCc2cc(S(=O)(=O)NCc3ccccc3Cl)ccc21 | 0.001% |
| CCOc1ccccc1NC(=O)Cn1c(=O)n(-c2ccc(C)c(C)c2)c(=O)c2oc3ccccc3c21 | 16.1% |
| O=C(Oc1ccccc1F)c1nc(SCc2ccccc2F)ncc1Cl | -9.82% |
| COc1ccccc1NC(=O)Cn1nc2c3cc(F)ccc3n(Cc3cccc(C)c3)cc-2c1=O | 4.56% |
| CCOC(=O)c1cc(C)n(CC2CCC(C(=O)Nc3ccc(OC)c(OC)c3)CC2)c1C (stereo unspecified) | -0.0337% |
| Cc1ccc2oc(C(=O)Nc3ccc(S(=O)(=O)N4CCCCCC4)cc3)cc(=O)c2c1 | 1.29% |
| NS(=O)(=O)c1cccc(NC(=O)COC(=O)C2(c3cccc(F)c3)CCCC2)c1 | active: 50.8% |
| Cc1cc(C)cc(NS(=O)(=O)c2c(C)nc3scc(C)n3c2=O)c1 | -1.62% |
| CCc1ccc(NC(=O)c2sc(-n3nc(C)c(Cc4ccc5c(c4)OCO5)c3C)nc2C)cc1 | 21.8% |
| Cc1ccc(S(=O)(=O)c2nnn3c2nc(NC2CCCCC2)c2sccc23)cc1 | -3.77% |
| CN(C)S(=O)(=O)c1ccc2c(c1)nnn2CCNC(=O)Nc1ccc(Cl)cc1 | -4.59% |
| Cc1ccc(Cc2cn3cc(-c4ccccc4)nc3s2)cc1 | 2.69% |
| Cc1ccc(C)c(Oc2nc3c(c(=O)n(C)c(=O)n3C)n2Cc2ccccc2)c1 | -15.4% |
| O=C(Oc1cccc2ccccc12)c1ccncc1 | active: 34% |
| Cc1cc(/C(N)=N/OC(=O)c2cccc(Cl)c2)no1 | active: 49.8% |
| Cc1ccc(Cn2c(=O)n(Cc3ccco3)c(=O)c3oc4ccccc4c32)cc1 | 2.55% |
| Cc1cc(C)c(OCCCCNCc2ccccc2)c(Cl)c1 | active: 49% |
| Cc1ccc(C)c(NC(=O)CSc2nc3c([nH]c4ccccc43)c(=O)n2-c2ccc(F)cc2)c1 | 9.3% |
| CCOc1ccc(OCC)c(NC(=O)c2cnc(SC)nc2-c2ccccc2)c1 | -23% |
| Clc1ccc(-c2ccc(CN3CCCCC3)o2)cc1 | active: 78.2% |
| COc1ccc(CC(=O)NCC(c2ccc(Cl)cc2)N2CCOCC2)cc1 (stereo unspecified) | -9.34% |
| Cc1ccc(C)c(Cn2c(=O)n(-c3ccc(Cl)cc3)c(=O)c3c(C)c(C)sc32)c1 | 4.62% |

Reference: PubChem BioAssay AID485344 (National Center for Advancing Translational Sciences (NCATS), 2010)
